This passage reports AlphaScreen luminescence signal results from the supplement of paper PMC12423691.

The other results are listed elsewhere or left out. Binding of human transcription factors and regulators to the viral nucleoprotein by AlphaScreen, crude cell-free proteins, amounts not normalised, one pass. Fold of the Venus control; higher = more signal. No active / inactive call. Single-pass screen; sequences are the whole Swiss-Prot entries looked up by name.

The labels stand for the following.
B1: SPDEF, O95238 (protein)
chain: MGSASPGLSSVSPSHLLLPPDTVSRTGLEKAAAGAVGLERRDWSPSPPATPEQGLSAFYLSYFDMLYPEDSSWAAKAPGASSREEPPEEPEQCPVIDSQAPAGSLDLVPGGLTLEEHSLEQVQSMVVGEVLKDIETACKLLNITADPMDWSPSNVQKWLLWTEHQYRLPPMGKAFQELAGKELCAMSEEQFRQRSPLGGDVLHAHLDIWKSAAWMKERTSPGAIHYCASTSEESWTDSEVDSSCSGQPIHLWQFLKELLLKPHSYGRFIRWLNKEKGIFKIEDSAQVARLWGIRKNRPAMNYDKLSRSIRQYYKKGIIRKPDISQRLVYQFVHPI
B2: ZNF138, P52744 (protein)
chain: MKRHEMVVAKHSALCSRFAQDLWLEQNIKDSFQKVTLSRYGKYGHKNLQLRKGCKSVDECKGHQGGFNGLNQCLKITTSKIFQCNKYVKVMHKFSNSNRHKIRHTENKHFRCKECDKSLCMLSRLTQHKKIHTRENFYKCEECGKTFNWSTNLSKPKKIHTGEKPYKCEVCGKAFHQSSILTKHKIIRTGEKPYKCAHCGKAFKQSSHLTRHKIIHTEEKPYKCEQCGKVFKQSPTLTKHQIIYTGEEPYKCEECGKAFNLS
B3: VAX2, Q9UIW0 (protein)
chain: MGDGGAERDRGPARRAESGGGGGRCGDRSGAGDLRADGGGHSPTEVAGTSASSPAGSRESGADSDGQPGPGEADHCRRILVRDAKGTIREIVLPKGLDLDRPKRTRTSFTAEQLYRLEMEFQRCQYVVGRERTELARQLNLSETQVKVWFQNRRTKQKKDQSRDLEKRASSSASEAFATSNILRLLEQGRLLSVPRAPSLLALTPSLPGLPASHRGTSLGDPRNSSPRLNPLSSASASPPLPPPLPAVCFSSAPLLDLPAGYELGSSAFEPYSWLERKVGSASSCKKANT
B4: CBFA2T2, O43439 (protein)
chain: MAKESGISLKEIQVLARQWKVGPEKRVPAMPGSPVEVKIQSRSSPPTMPPLPPINPGGPRPVSFTPTALSNGINHSPPTLNGAPSPPQRFSNGPASSTSSALTNQQLPATCGARQLSKLKRFLTTLQQFGNDISPEIGEKVRTLVLALVNSTVTIEEFHCKLQEATNFPLRPFVIPFLKANLPLLQRELLHCARAAKQTPSQYLAQHEHLLLNTSIASPADSSELLMEVHGNGKRPSPERREENSFDRDTIAPEPPAKRVCTISPAPRHSPALTVPLMNPGGQFHPTPPPLQHYTLEDIATSHLYREPNKMLEHREVRDRHHSLGLNGGYQDELVDHRLTEREWADEWKHLDHALNCIMEMVEKTRRSMAVLRRCQESDREELNYWKRRYNENTELRKTGTELVSRQHSPGSADSLSNDSQREFNSRPGTGYVPVEFWKKTEEAVNKVKIQAMSEVQKAVAEAEQKAFEVIATERARMEQTIADVKRQAAEDAFLVINEQEESTENCWNCGRKASETCSGCNIARYCGSFCQHKDWERHHRLCGQNLHGQSPHGQGRPLLPVGRGSSARSADCSVPSPALDKTSATTSRSSTPASVTAIDTNGL
B5: FZD4, Q9ULV1 (protein)
chain: MAWRGAGPSVPGAPGGVGLSLGLLLQLLLLLGPARGFGDEEERRCDPIRISMCQNLGYNVTKMPNLVGHELQTDAELQLTTFTPLIQYGCSSQLQFFLCSVYVPMCTEKINIPIGPCGGMCLSVKRRCEPVLKEFGFAWPESLNCSKFPPQNDHNHMCMEGPGDEEVPLPHKTPIQPGEECHSVGTNSDQYIWVKRSLNCVLKCGYDAGLYSRSAKEFTDIWMAVWASLCFISTAFTVLTFLIDSSRFSYPERPIIFLSMCYNIYSIAYIVRLTVGRERISCDFEEAAEPVLIQEGLKNTGCAIIFLLMYFFGMASSIWWVILTLTWFLAAGLKWGHEAIEMHSSYFHIAAWAIPAVKTIVILIMRLVDADELTGLCYVGNQNLDALTGFVVAPLFTYLVIGTLFIAAGLVALFKIRSNLQKDGTKTDKLERLMVKIGVFSVLYTVPATCVIACYFYEISNWALFRYSADDSNMAVEMLKIFMSLLVGITSGMWIWSAKTLHTWQKCSNRLVNSGKVKREKRGNGWVKPGKGSETVV
B6: POU4F1, Q01851 (protein)
chain: MMSMNSKQPHFAMHPTLPEHKYPSLHSSSEAIRRACLPTPPLQSNLFASLDETLLARAEALAAVDIAVSQGKSHPFKPDATYHTMNSVPCTSTSTVPLAHHHHHHHHHQALEPGDLLDHISSPSLALMAGAGGAGAAAGGGGAHDGPGGGGGPGGGGGPGGGPGGGGGGGPGGGGGGPGGGLLGGSAHPHPHMHSLGHLSHPAAAAAMNMPSGLPHPGLVAAAAHHGAAAAAAAAAAGQVAAASAAAAVVGAAGLASICDSDTDPRELEAFAERFKQRRIKLGVTQADVGSALANLKIPGVGSLSQSTICRFESLTLSHNNMIALKPILQAWLEEAEGAQREKMNKPELFNGGEKKRKRTSIAAPEKRSLEAYFAVQPRPSSEKIAAIAEKLDLKKNVVRVWFCNQRQKQKRMKFSATY
B7: TEF, Q10587 (protein)
chain: MSDAGGGKKPPVDPQAGPGPGPGRAAGERGLSGSFPLVLKKLMENPPREARLDKEKGKEKLEEDEAAAASTMAVSASLMPPIWDKTIPYDGESFHLEYMDLDEFLLENGIPASPTHLAHNLLLPVAELEGKESASSSTASPPSSSTAIFQPSETVSSTESSLEKERETPSPIDPNCVEVDVNFNPDPADLVLSSVPGGELFNPRKHKFAEEDLKPQPMIKKAKKVFVPDEQKDEKYWTRRKKNNVAAKRSRDARRLKENQITIRAAFLEKENTALRTEVAELRKEVGKCKTIVSKYETKYGPL
B8: ZIC1, Q15915 (protein)
chain: MLLDAGPQYPAIGVTTFGASRHHSAGDVAERDVGLGINPFADGMGAFKLNPSSHELASAGQTAFTSQAPGYAAAAALGHHHHPGHVGSYSSAAFNSTRDFLFRNRGFGDAAAAASAQHSLFAASAGGFGGPHGHTDAAGHLLFPGLHEQAAGHASPNVVNGQMRLGFSGDMYPRPEQYGQVTSPRSEHYAAPQLHGYGPMNVNMAAHHGAGAFFRYMRQPIKQELICKWIEPEQLANPKKSCNKTFSTMHELVTHVTVEHVGGPEQSNHICFWEECPREGKPFKAKYKLVNHIRVHTGEKPFPCPFPGCGKVFARSENLKIHKRTHTGEKPFKCEFEGCDRRFANSSDRKKHMHVHTSDKPYLCKMCDKSYTHPSSLRKHMKVHESSSQGSQPSPAASSGYESSTPPTIVSPSTDNPTTSSLSPSSSAVHHTAGHSALSSNFNEWYV
B9: ARID3B, Q8IVW6 (protein)
chain: MEPLQQQQQQQQQQQKQPHLAPLQMDAREKQGQQMREAQFLYAQKLVTQPTLLSATAGRPSGSTPLGPLARVPPTAAVAQVFERGNMNSEPEEEDGGLEDEDGDDEVAEVAEKETQAASKYFHVQKVARQDPRVAPMSNLLPAPGLPPHGQQAKEDHTKDASKASPSVSTAGQPNWNLDEQLKQNGGLAWSDDADGGRGREISRDFAKLYELDGDPERKEFLDDLFVFMQKRGTPINRIPIMAKQILDLYMLYKLVTEKGGLVEIINKKIWREITKGLNLPTSITSAAFTLRTQYMKYLYAYECEKKALSSPAELQAAIDGNRREGRRPSYSSSLFGYSPAAATAAAAAGAPALLSPPKIRFPILGLGSSSGTNTSSPRISPATTLRKGDGAPVTTVPVPNRLAVPVTLASQQAGTRTAALEQLRERLESGEPAEKKASRLSEEEQRLVQQAFQRNFFSMARQLPMKIRINGRAEDRAEASAAALNLTTSSIGSINMSVDIDGTTYAGVLFAQKPVVHLITGSAPQSLGSSASSSSSSHCSPSPTSSRGTPSAEPSTSWSL
B10: PRMT2, P55345 (protein)
chain: MATSGDCPRSESQGEEPAECSEAGLLQEGVQPEEFVAIADYAATDETQLSFLRGEKILILRQTTADWWWGERAGCCGYIPANHVGKHVDEYDPEDTWQDEEYFGSYGTLKLHLEMLADQPRTTKYHSVILQNKESLTDKVILDVGCGTGIISLFCAHYARPRAVYAVEASEMAQHTGQLVLQNGFADIITVYQQKVEDVVLPEKVDVLVSEWMGTCLLFEFMIESILYARDAWLKEDGVIWPTMAALHLVPCSADKDYRSKVLFWDNAYEFNLSALKSLAVKEFFSKPKYNHILKPEDCLSEPCTILQLDMRTVQISDLETLRGELRFDIRKAGTLHGFTAWFSVHFQSLQEGQPPQVLSTGPFHPTTHWKQTLFMMDDPVPVHTGDVVTGSVVLQRNPVWRRHMSVALSWAVTSRQDPTSQKVGEKVFPIWR
B11: TRIM15, Q9C019 (protein)
chain: MPATPSLKVVHELPACTLCAGPLEDAVTIPCGHTFCRLCLPALSQMGAQSSGKILLCPLCQEEEQAETPMAPVPLGPLGETYCEEHGEKIYFFCENDAEFLCVFCREGPTHQAHTVGFLDEAIQPYRDRLRSRLEALSTERDEIEDVKCQEDQKLQVLLTQIESKKHQVETAFERLQQELEQQRCLLLARLRELEQQIWKERDEYITKVSEEVTRLGAQVKELEEKCQQPASELLQDVRVNQSRCEMKTFVSPEAISPDLVKKIRDFHRKILTLPEMMRMFSENLAHHLEIDSGVITLDPQTASRSLVLSEDRKSVRYTRQKKSLPDSPLRFDGLPAVLGFPGFSSGRHRWQVDLQLGDGGGCTVGVAGEGVRRKGEMGLSAEDGVWAVIISHQQCWASTSPGTDLPLSEIPRGVRVALDYEAGQVTLHNAQTQEPIFTFTASFSGKVFPFFAVWKKGSCLTLKG

The test deals with nucleoprotein N of Crimean-Congo hemorrhagic fever virus. The test is described as follows: AlphaScreen luminescence signal relative to Venus negative control (fold); higher = stronger binding to CCHFV N. Here is the method:
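AlphaScreen binding of cell-free made, FLAG-GST-tagged human transcription factors and regulators (crude translation products) to biotinylated N protein; signal as fold of the FLAG-GST-Venus control. One pass.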
As to B1, the AlphaScreen luminescence signal worked out at 1.86.
B2 yielded an AlphaScreen luminescence signal of 2.79.
Under B3 stands 3.77; under B4, 1.67.
Take B5: the AlphaScreen luminescence signal turned out to be 2.51.
B6: the AlphaScreen luminescence signal came to 3.02.
Under B7 stands 5.4.
B8 displayed an AlphaScreen luminescence signal of 14.4.
In the case of B9, the AlphaScreen luminescence signal amounted to 1.21.
Turning to B10, the AlphaScreen luminescence signal was determined as 2.28.
Under B11 stands 2.14.
